Test results as given in patent US20250109212A1 (BIOSION, published 2025).

Biological target: T1, human CD47-his protein (Cat #: CD7-H5227, Acro biosystems) (human, UniProt Q08722 part only)
T1 construct: Bought protein
Assay: SPR (Biacore T200), sample on Protein A chip, antigen-his analyte, 1:1 fit

T1 sequence (Q08722 19-139 limits assumed): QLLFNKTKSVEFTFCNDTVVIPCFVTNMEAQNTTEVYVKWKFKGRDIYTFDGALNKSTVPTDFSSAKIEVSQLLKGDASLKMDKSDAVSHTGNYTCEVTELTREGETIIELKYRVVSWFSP

B1: SIRPα-isoform2-Fc (Fc fusion)
chain: [about 120 residues not given here]KPSAPVVSGPAARATPQHTVSFTCESHGFSPRDITLKWFKNGNELSDFQTNVDPVGESVSYSIHSTAKVVLTREDVHSQVICEVAHVTLQGDPLRGTANLSETIRVPPTLEVTQQPVRAENQVNVTCQVRKFYPQRLQLTWLENGNVSRTETASTVTENKDGTYNWMSWLLVNVSAHRDDVKLTCQVEHDGQPAVSKSHDLKVSAHPKEQGSNTAAENTGSNER[human IgG1 Fc not given here]
- Kd: 5.52 nM
- koff: 0.00918 s⁻¹
- kon: 1.66e+06 M⁻¹ s⁻¹
